Assay results reported in PubChem BioAssay AID624202 (National Center for Advancing Translational Sciences (NCATS), 2012).
About 4,000 (1.1%) of roughly 380,000 compounds were called active. This list was built around the results that the source calls inconclusive (neither active nor inactive); the mix of calls is not that of the screen. Calls come from the whole dose curve; as a rule, active = well fitted activation curve with a large enough effect; inconclusive = small, poorly fitted or top-dose-only effect; inactive = no such curve, though single readings can be large or run the other way. Where the call is inconclusive, the potency comes from a doubtful curve fit.
Potency is the fitted concentration of half-maximal effect; tags give direction and shape of the fitted curve.

Assay: qHTS Assay to Identify Small Molecule Activators of BRCA1 Expression; note: nearly all actives have a fitted effect of over 80% in size
Conditions: MCF7-BRCA1-FFLuc reporter, luminescence, 48 h; activation: at 46.1 µM (top of the series), scaled: vehicle 0%, 10 µM genistein 100% unless noted
Procedure, shortened: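 Luminescence from a BRCA1-driven firefly luciferase in MCF7 cells was the read-out, taken 15 min after substrate addition following 48 h compound exposure at 37 °C. Data were normalized to a 10 microM genistein control and DMSO vehicle.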
In the case of `Cc1ccc(/C(N)=N/OC(=O)C23CC4CC(CC(C4)C2)C3)cc1`, the Potency is reported as inconclusive: 25.1 µM [activator, single point].
With `Cc1ccc(NC(=O)COc2ccccc2[N+](=O)[O-])nc1` the Potency was inconclusive: 1.26 µM [activator, partial curve, poor fit].
In the case of `O=C(Nc1ccc(N2CCCC2)cc1)c1ccccc1F`, the Potency is reported as inconclusive: 1.26 µM [activator, full curve, poor fit].
In the case of `CCOC(=O)C1=C(C)N(C)C(=S)NC1c1ccccc1` (stereo unspecified), the “activation” value is reported as inactive: -44%.
For `CCc1ccc(NC(=S)N2CCN(C)CC2)cc1`, the Potency was active: 11.2 µM.
With `COc1ccc(-c2cc(C(=O)NCC(C)C)no2)cc1` the Potency was inconclusive: 1.26 µM [activator, full curve, poor fit].
For `NC(=O)c1sc2nc(-c3ccccc3)ccc2c1N`, the Potency was inconclusive: 2.82 µM [activator, full curve, poor fit].
In the case of `O=C(Cc1ccc([N+](=O)[O-])cc1)c1ccc(O)cc1O`, the Potency is reported as active: 10 µM.
In the case of `CCC1=NN(C(=O)c2ccc(Cl)cc2)C(O)(c2ccc(C)cc2)C1` (stereo unspecified), the “activation” value is reported as inactive: -12.5%.
In the case of `CC(C)(C)c1ccc(C(=O)Nc2cccc(C(=O)N3CCOCC3)c2)cc1`, the Potency is reported as inconclusive: 1.58 µM [activator, partial curve, poor fit].
For `Cc1csc(Nc2nc(N)c(C(=O)Nc3ccccc3)o2)n1`, the Potency was active: 7.94 µM.
In the case of `CC(O)(c1ccc(F)c(F)c1)c1nc(-c2cccc(C(=O)O)c2)cs1` (stereo unspecified), the Potency is reported as inconclusive: 12.6 µM [activator, partial curve, poor fit].
With `CCc1cc2c(=O)n(-c3ccc(C)cc3)cnc2s1` the Potency was inconclusive: 2 µM [activator, partial curve, poor fit].
In the case of `O=C(Nc1ccccc1)Nc1nnc([C@H]2C[C@H](O)[C@@H](CO)O2)s1`, the Potency is reported as inconclusive: 35.5 µM [activator, single point].
For `O=C(Nc1ccccn1)c1ccc(S(=O)(=O)N2CCCCCC2)cc1`, the Potency was inconclusive: 35.5 µM [activator, single point].
For `O=C(O)c1[nH]c2ccccc2c1NS(=O)(=O)c1ccc(F)cc1`, the “activation” value was inactive: -6.58%.
In the case of `CC(C)(C)c1ccc(OCc2nc(-c3ccccn3)no2)c(Br)c1`, the Potency is reported as inconclusive: 1 µM [activator, full curve, poor fit].
For `COc1ccc(SC[C@H](CC(C)C)N2CCN(C)CCC2=O)cc1`, the Potency was inconclusive: 28.2 µM [activator, single point].
With `COC(=O)[C@]12CCCCC=C1N(Cc1ccc(Cl)cc1Cl)C(=O)[C@H](CC(=O)N1CCC(c3ccccc3)CC1)C2` the “activation” value was inactive: -1.93%.
In the case of `Cc1ccc(-c2nnc(-c3ccc4c(c3)OCO4)o2)cc1`, the Potency is reported as inconclusive: 2.24 µM [activator, full curve, poor fit].
In the case of `Cc1ccc(C2=NNC(c3cccc(F)c3)S2)cc1` (stereo unspecified), the Potency is reported as inconclusive: 0.631 µM [activator, full curve, poor fit].
For `CCN1CCN(C(=O)c2ccc3c(c2)N(Cc2ccc(Cl)cc2)C(=O)c2ccccc2S3=O)CC1` (stereo unspecified), the “activation” value was inactive: -19.8%.
For `O=C(NCCOc1ccccc1)c1ccccc1F`, the Potency was inconclusive: 1.26 µM [activator, full curve, poor fit].
With `COc1ccc(C(=O)Nc2cc(C)on2)c(OC)c1` the Potency was inconclusive: 2.51 µM [activator, full curve, poor fit].
With `COc1ccc(C(=O)C(OC(=O)c2ccccc2Cl)c2ccccc2)cc1` (stereo unspecified) the Potency was inconclusive: 11.2 µM [activator, partial curve, poor fit].
With `Cc1ccc(Cl)cc1NC(=O)c1cc(-c2ccc3c(c2)OCCO3)on1` the Potency was inconclusive: 1.41 µM [activator, full curve, poor fit].
For `CC(=O)c1ccc(NC(=S)NCCc2cccc(Cl)c2)cc1`, the Potency was active: 3.16 µM.
In the case of `CCn1nnc2c(=O)oc3ccccc3c21`, the “activation” value is reported as inactive: -19.8%.
In the case of `O=C(O)c1cc(/C=C/c2ccc(N3CCOCC3)cc2)nc2ccccc12`, the “activation” value is reported as inactive: 0%.
For `C=CC[C@@H](CC(=O)N[C@@H](CO)Cc1ccccc1)C(=O)N[C@H](COC(=O)[C@@H](CC=C)CC(=O)OC(C)(C)C)Cc1c[nH]c2ccccc12`, the “activation” value was inactive: -69.4%.
In the case of `CN(C)CCCNC(=O)c1cc(C(=O)c2c(Cl)cccc2Cl)c[nH]1`, the “activation” value is reported as inactive: -23.8%.
With `CN(CC(=O)Nc1ccc(Cl)c(S(=O)(=O)N(C)C)c1)Cc1ccccc1` the Potency was inconclusive: 11.2 µM [activator, partial curve, poor fit].
In the case of `O=c1cc(-c2ccc(O)cc2)oc2ccccc12`, the Potency is reported as inconclusive: 31.6 µM [activator, single point].
For `COc1ccc(C(=O)O/N=C(\N)c2ccccc2)c(OC)c1`, the “activation” value was inactive: -36.8%.
For `COc1cc(NC(=O)NCCn2nnc3cc(S(=O)(=O)N(C)C)ccc32)cc(OC)c1OC`, the “activation” value was inactive: 4.92%.
For `CCOc1ccc2nc(NC(=O)Nc3cccs3)sc2c1`, the Potency was inconclusive: 20 µM [activator, single point].
With `CCOCCCNC(=O)c1ccc2c(c1)ncn2C1CCCC1` the Potency was inconclusive: 10 µM [activator, partial curve, poor fit].
In the case of `Cc1ccccc1Cn1nnc(-c2ccc3c(c2)OCO3)n1`, the Potency is reported as inconclusive: 10 µM [activator, partial curve, poor fit].
With `COC(=O)c1sc(NC(=O)c2csc3c2CCCC3)nc1C` the Potency was inconclusive: 1.58 µM [activator, partial curve, poor fit].
In the case of `O=C(Cc1cccs1)Nc1ccc(N2CCOCC2)cc1`, the Potency is reported as active: 7.94 µM.
With `CC(=O)N1c2ccc(S(=O)(=O)N3CCC(C(=O)NCc4ccccc4Cl)CC3)cc2CC1C` (stereo unspecified) the “activation” value was inactive: 3.79%.
For `COc1ccc(C(=O)Nc2nc3ccccc3s2)cc1OC`, the Potency was active: 4.47 µM.
For `C/C(=N\NC(=O)c1ccc(O)cc1)c1cccc(NC(=O)c2ccc(Cl)cc2)c1`, the Potency was active: 5.62 µM.
In the case of `NC(=O)C(c1cccc(Cl)c1)c1ncc(C(F)(F)F)cc1Cl` (stereo unspecified), the “activation” value is reported as inactive: 2.06%.
With `O=C(NCc1ccco1)c1cc(-c2ccccc2)on1` the Potency was inconclusive: 2.82 µM [activator, full curve, poor fit].
With `Cc1cc(/C=C2\SC(=S)NC2=O)c(C)n1-c1ccccc1` the Potency was inconclusive: 1.26 µM [activator, full curve, poor fit].
